# Data published in the supplement of paper PMC8728848.
# Some of the results follow.
# B1: OVGAL11 (Ovis aries), AAF64320 (protein)
# chain: MDSLPNPYLQSVSLTVCYMVKIKANLLSAFGKNPELQVDFGTGTGQGGNIPFRFWYCDGMVVMNTFTDGSWQKEEKVLTDAFVPGQPFELQFLVLEKEYQVFVKNKPICQFAHRLPLQSVKMLDVRGDIVLTSVDTL
# Columns and labels:
# Assay in all cases: glycan array binding signal (z-score within array); higher = stronger binding
# Details in all cases: glycan notation: IUPAC condensed, linker removed
# Fuc(a1-2)Gal = biological target: Fuc(a1-2)Gal
# Procedure, shortened: (§1)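 Glycan array data were curated from 3228 arrays in the Consortium for Functional Glycomics database and kept only where the protein sequence was available. Glycan names were converted to IUPAC-condensed notation, and columns mapping to the same glycan were averaged. The binding signal is a within-array Z-score, averaged across arrays of the same protein sequence at different concentrations or buffers and across linkers. Negative Z-scores can be read as non-binding.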
# Fuc(a1-2)Gal(b1-3)GalNAc = biological target: Fuc(a1-2)Gal(b1-3)GalNAc
# Procedure, shortened: as §1
# [1] = biological target: Fuc(a1-2)Gal(b1-3)GalNAc(a1-3)[Fuc(a1-2)]Gal(b1-4)Glc
# Procedure, shortened: as §1
# [2] = biological target: Fuc(a1-2)Gal(b1-3)GalNAc(a1-3)[Fuc(a1-2)]Gal(b1-4)GlcNAc
# Procedure, shortened: as §1
# [3] = biological target: Fuc(a1-2)Gal(b1-3)GalNAc(b1-3)Gal
# Procedure, shortened: as §1
# [4] = biological target: Fuc(a1-2)Gal(b1-3)GalNAc(b1-3)Gal(a1-4)Gal(b1-4)Glc
# Procedure, shortened: as §1
# [5] = biological target: Fuc(a1-2)Gal(b1-3)GalNAc(b1-3)Gal(b1-4)Glc
# Procedure, shortened: as §1
# [6] = biological target: Fuc(a1-2)Gal(b1-3)GalNAc(b1-4)[Neu5Ac(a2-3)]Gal(b1-4)Glc
# Procedure, shortened: as §1
# Fuc(a1-2)Gal(b1-3)GlcNAc = biological target: Fuc(a1-2)Gal(b1-3)GlcNAc
# Procedure, shortened: as §1
# [7] = biological target: Fuc(a1-2)Gal(b1-3)GlcNAc(b1-2)Man(a1-3)[Fuc(a1-2)Gal(b1-3)GlcNAc(b1-2)Man(a1-6)]Man(b1-4)GlcNAc(b1-4)GlcNAc
# Procedure, shortened: as §1
# [8] = biological target: Fuc(a1-2)Gal(b1-3)GlcNAc(b1-2)Man(a1-3)[Fuc(a1-2)Gal(b1-3)GlcNAc(b1-2)Man(a1-6)]Man(b1-4)GlcNAc(b1-4)[Fuc(a1-6)]GlcNAc
# Procedure, shortened: as §1
# [9] = biological target: Fuc(a1-2)Gal(b1-3)GlcNAc(b1-3)Gal(b1-4)Glc
# Procedure, shortened: as §1
# [10] = biological target: Fuc(a1-2)Gal(b1-3)GlcNAc(b1-3)GalNAc
# Procedure, shortened: as §1
# [11] = biological target: Fuc(a1-2)Gal(b1-3)GlcNAc(b1-3)[Fuc(a1-2)Gal(b1-3)GlcNAc(b1-6)]GalNAc
# Procedure, shortened: as §1
# [12] = biological target: Fuc(a1-2)Gal(b1-3)GlcNAc(b1-3)[Gal(b1-4)GlcNAc(b1-6)]Gal(b1-4)Glc
# Procedure, shortened: as §1
# [13] = biological target: Fuc(a1-2)Gal(b1-3)GlcNAc(b1-3)[Neu5Ac(a2-6)Gal(b1-4)GlcNAc(b1-6)]Gal(b1-4)Glc
# Procedure, shortened: as §1
# [14] = biological target: Fuc(a1-2)Gal(b1-3)GlcNAc6S
# Procedure, shortened: as §1
# [15] = biological target: Fuc(a1-2)Gal(b1-3)[Fuc(a1-4)]GlcNAc
# Procedure, shortened: as §1
# [16] = biological target: Fuc(a1-2)Gal(b1-3)[Fuc(a1-4)]GlcNAc(b1-2)Man(a1-3)[Fuc(a1-2)Gal(b1-3)[Fuc(a1-4)]GlcNAc(b1-2)Man(a1-3)]Man(b1-4)GlcNAc(b1-4)GlcNAc
# Procedure, shortened: as §1
# [17] = biological target: Fuc(a1-2)Gal(b1-3)[Fuc(a1-4)]GlcNAc(b1-2)Man(a1-3)[Fuc(a1-2)Gal(b1-3)[Fuc(a1-4)]GlcNAc(b1-2)Man(a1-6)]Man(b1-4)GlcNAc(b1-4)[Fuc(a1-6)]GlcNAc(b1-4)[Fuc(a1-6)]GlcNAc
# Procedure, shortened: as §1
# [18] = biological target: Fuc(a1-2)Gal(b1-3)[Fuc(a1-4)]GlcNAc(b1-3)[Fuc(a1-3)[Gal(b1-4)]GlcNAc(b1-6)]Gal(b1-4)Glc
# Procedure, shortened: as §1
# [19] = biological target: Fuc(a1-2)Gal(b1-3)[Fuc(a1-4)]GlcNAc(b1-3)[Gal(b1-4)GlcNAc(b1-6)]Gal(b1-4)Glc
# Procedure, shortened: as §1
# [20] = biological target: Fuc(a1-2)Gal(b1-4)Fuc(a1-3)]GlcNAc(b1-2)Man(a1-3)[Fuc(a1-2)Gal(b1-4)[Fuc(a1-3)]GlcNAc(b1-2)Man(a1-6)]Man(b1-4)GlcNAc(b1-4)GlcNAc
# Procedure, shortened: as §1
# Fuc(a1-2)Gal(b1-4)Glc = biological target: Fuc(a1-2)Gal(b1-4)Glc
# Procedure, shortened: as §1
# Fuc(a1-2)Gal(b1-4)Glc6S = biological target: Fuc(a1-2)Gal(b1-4)Glc6S
# Procedure, shortened: as §1
# Fuc(a1-2)Gal(b1-4)GlcNAc = biological target: Fuc(a1-2)Gal(b1-4)GlcNAc
# Procedure, shortened: as §1
# [21] = biological target: Fuc(a1-2)Gal(b1-4)GlcNAc(b1-2)Man
# Procedure, shortened: as §1
# [22] = biological target: Fuc(a1-2)Gal(b1-4)GlcNAc(b1-2)Man(a1-3)[Fuc(a1-2)Gal(b1-4)GlcNAc(b1-2)Man(a1-6)]Man(b1-4)GlcNAc(b1-4)GlcNAc
# Procedure, shortened: as §1
# [23] = biological target: Fuc(a1-2)Gal(b1-4)GlcNAc(b1-2)Man(a1-3)[Fuc(a1-2)Gal(b1-4)GlcNAc(b1-2)Man(a1-6)]Man(b1-4)GlcNAc(b1-4)[Fuc(a1-6)]GlcNAc
# Procedure, shortened: as §1
# [24] = biological target: Fuc(a1-2)Gal(b1-4)GlcNAc(b1-2)[Fuc(a1-2)Gal(b1-4)GlcNAc(b1-4)]Man(a1-3)[Fuc(a1-2)Gal(b1-4)GlcNAc(b1-2)Man(a1-6)]Man(b1-4)GlcNAc(b1-4)GlcNAc
# Procedure, shortened: as §1
binder,measurement,setting,value
B1,glycan array binding signal (z-score),Fuc(a1-2)Gal,-0.071
same,glycan array binding signal (z-score),Fuc(a1-2)Gal(b1-3)GalNAc,-0.148
same,glycan array binding signal (z-score),[1],-0.061
same,glycan array binding signal (z-score),[2],-0.112
same,glycan array binding signal (z-score),[3],1.72
same,glycan array binding signal (z-score),[4],-0.119
same,glycan array binding signal (z-score),[5],-0.15
same,glycan array binding signal (z-score),[6],6.31
same,glycan array binding signal (z-score),Fuc(a1-2)Gal(b1-3)GlcNAc,-0.096
same,glycan array binding signal (z-score),[7],-0.019
same,glycan array binding signal (z-score),[8],-0.051
same,glycan array binding signal (z-score),[9],-0.116
same,glycan array binding signal (z-score),[10],-0.109
same,glycan array binding signal (z-score),[11],-0.093
same,glycan array binding signal (z-score),[12],-0.07
same,glycan array binding signal (z-score),[13],-0.113
same,glycan array binding signal (z-score),[14],-0.083
same,glycan array binding signal (z-score),[15],-0.196
same,glycan array binding signal (z-score),[16],-0.071
same,glycan array binding signal (z-score),[17],-0.046
same,glycan array binding signal (z-score),[18],-0.121
same,glycan array binding signal (z-score),[19],-0.098
same,glycan array binding signal (z-score),[20],-0.036
same,glycan array binding signal (z-score),Fuc(a1-2)Gal(b1-4)Glc,-0.057
same,glycan array binding signal (z-score),Fuc(a1-2)Gal(b1-4)Glc6S,-0.11
same,glycan array binding signal (z-score),Fuc(a1-2)Gal(b1-4)GlcNAc,-0.31
same,glycan array binding signal (z-score),[21],-0.102
same,glycan array binding signal (z-score),[22],0.022
same,glycan array binding signal (z-score),[23],-0.071
same,glycan array binding signal (z-score),[24],-0.059
